Screen size: about 45,000 compounds; about 65 (0.1%) were called active. The call rests on the fitted dose curve; in most records, active means well fitted activation curve with a large enough effect; inconclusive means small, poorly fitted or top-dose-only effect; inactive means no such curve, though single readings can be large or run the other way. Some of the results follow.
biological target: Galactocerebrosidase (Homo sapiens) (UniProt P54803); experiment: A Novel Cell-Based Assay to Identify Small Molecules for B -Galactocerebrosidase; conditions: 145M-Twi-hGALC-G270D cells (Twitcher mouse brain line with human GALC G270D), HMU-beta-Gal fluorescence, 48 h; series mostly up to 57.5 µM; activation: at the top concentration; further: 0% is about no effect; nearly all actives have a fitted effect of over 65% in size
Sequence of UniProt P54803 (P54803 whole entry, looked up): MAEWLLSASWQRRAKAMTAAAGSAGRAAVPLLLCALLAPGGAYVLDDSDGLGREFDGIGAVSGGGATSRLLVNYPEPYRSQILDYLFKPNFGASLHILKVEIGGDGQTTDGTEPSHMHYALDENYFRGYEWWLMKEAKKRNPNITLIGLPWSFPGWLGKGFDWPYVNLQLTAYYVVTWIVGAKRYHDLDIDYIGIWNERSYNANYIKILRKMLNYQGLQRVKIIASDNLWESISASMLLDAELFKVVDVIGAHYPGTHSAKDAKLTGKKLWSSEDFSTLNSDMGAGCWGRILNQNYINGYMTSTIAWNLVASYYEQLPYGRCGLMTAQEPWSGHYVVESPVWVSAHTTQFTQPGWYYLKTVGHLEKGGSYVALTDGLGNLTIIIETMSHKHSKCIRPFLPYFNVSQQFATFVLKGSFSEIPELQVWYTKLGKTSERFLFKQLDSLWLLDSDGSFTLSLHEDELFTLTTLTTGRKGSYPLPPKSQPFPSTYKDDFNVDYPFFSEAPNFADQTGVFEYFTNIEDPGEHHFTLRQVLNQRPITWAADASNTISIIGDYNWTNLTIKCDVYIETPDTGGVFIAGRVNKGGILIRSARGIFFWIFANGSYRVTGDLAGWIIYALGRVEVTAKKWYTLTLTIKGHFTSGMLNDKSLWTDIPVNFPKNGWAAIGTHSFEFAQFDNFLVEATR
In short: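 Live 145M-Twi cells (Twitcher mouse brain-derived, GALC-null) stably expressing human GALC-G270D, with a wild-type GALC line, were compound-treated. Residual GALC activity was then read as fluorescence from 0.1 mM final HMU-β-gal at pH 5.2; higher signal means activation.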

activation, inactive:
CC(=O)N1CCCc2cc(S(=O)(=O)N3CCCC(C(=O)NCc4ccccc4Cl)C3)ccc21 (stereo unspecified) -20.7%
CCc1ccc(-c2nn(CC(=O)NC3CCCCC3)c3c2cnc2ccc(F)cc23)cc1 -7.67%
COc1ccccc1CNC(=O)c1cc2c(=O)oc3ccc(C)cc3c2s1 -11%
COc1ccc(CNC(=O)c2cc3c(=O)n(Cc4cccnc4)ccc3nc2C)cc1 -14.3%
CCCNS(=O)(=O)c1cc(-c2nn3c(C)nnc3c3ccccc23)ccc1C -8.46%
COc1ccccc1CCNC(=O)Cc1ccc(NC(=O)N2CCSc3ncccc32)cc1 -24%
CC(=O)c1ccc(S(=O)(=O)N2CCn3cccc3C2c2ccccc2F)cc1 (stereo unspecified) -1.67%
COc1cccc(NC(=O)CSc2nc3c([nH]c4ccccc43)c(=O)n2-c2cc(C)cc(C)c2)c1 -21%
Cc1cc(C)cc(NC(=O)Cc2csc(C)n2)c1 2.74%
CCc1cccc(OCC(=O)Nc2ccc(S(=O)(=O)Nc3ncccn3)cc2)c1 2.95%
CCOc1ccccc1NC(=O)C1CCN(S(=O)(=O)c2ccc3[nH]c(=O)oc3c2)CC1 -12.7%
CC1CCc2c(cc(-c3ccccc3)n2-c2ccc(C(=O)NC(C)C)cc2)C1 (stereo unspecified) 18.8%
Cc1cccc(C)c1OCc1nc2c3cnn(-c4ccccc4F)c3ncn2n1 -11.8%
CC(C)(C)c1ccc(OCc2nc3ccccc3n2CCOc2ccccc2)cc1 -14.4%
O=C(CCS(=O)(=O)c1cc(Br)cc2c1N(C(=O)C1CC1)CC2)N1CCN(c2cccc(Cl)c2)CC1 -35.5%
CCC(C)NC(=O)c1c(C)oc2ncn(CC(C)C)c(=O)c12 (stereo unspecified) -9.92%
COc1ccc(-c2nc3ccccc3n3c(-c4cccc(C)c4)c4c(=O)n(C)c(=O)n(C)c4c23)cc1OC -5.86%
CC1=C(C(=O)OC2CCCC2)C(c2c(Cl)cccc2Cl)CC(=O)N1 (stereo unspecified) -8.46%
CCCCNC(=O)CSc1nc2cc3c(cc2c(=O)n1CCCC(=O)NCCc1ccc(OC)c(OC)c1)OCO3 -2.23%
Cc1cc(C(=O)N2CCN(c3ccccc3)CC2)c2c(C)nn(-c3cccc(F)c3)c2n1 -5.59%
COc1cc(NC(=O)C2CCN(C(=O)c3sc4nc[nH]c(=O)c4c3C)CC2)cc(OC)c1OC 2.47%
CCCCNC(=O)C1CCC(Cn2c(=O)c3sccc3n(Cc3ccccc3)c2=O)CC1 (stereo unspecified) -11.3%
O=C(Cn1c(=O)n(CCc2ccccc2)c(=O)c2cccnc21)Nc1ccc(F)cc1 -21.2%
CCOc1ccccc1OCC1CNCCO1 (stereo unspecified) -19%
Cc1cc(C)c(NC(=O)c2nc3ccccc3nc2N2CCCCC2)c(C)c1 -13.4%
CCC(=O)N1CCc2cc(S(=O)(=O)NC(C(=O)NCCc3ccc(OC)c(OC)c3)C(C)C)ccc21 (stereo unspecified) -5.21%
Cc1cc(C)cc(NC(=O)CSc2oc(-c3ccccc3)nc2S(=O)(=O)c2ccc(Cl)cc2)c1 -4.76%
CCOC(=O)c1ccccc1NC(=O)Cn1ncc2c1-c1ccccc1OC2 -29.8%
Cc1ccc(CNC(=O)c2nn(-c3ccc(Cl)cc3)nc2CO)cc1 -27%
Cc1ccccc1CSc1nnc2[nH]c(=O)cc(-c3ccccc3)n12 -20.6%
CCc1ccc(-n2c(=O)c3c4c(sc3n(Cc3cc(=O)n5c(C)cccc5n3)c2=O)CCC4)cc1 -1.69%
CCOC(=O)c1[nH]c2c(c1Cc1ccccc1OC)C(=O)CC(c1ccc(OC)cc1)C2 (stereo unspecified) -6.66%
N=C1N=C(N)c2cc3ccccc3cc21 -11.3% [at 114 µM]
Cc1ccc(NC(=O)Cn2nc(C(F)(F)F)c3c2CCCC3)cc1C -2.1%
Cc1ccc(N2C(=O)c3n[nH]c(C)c3C2c2ccc(Cl)cc2)cc1 (stereo unspecified) -2.39%
Cc1ccc2c(c1)N(CC(=O)NCCc1ccccc1)C(=O)CO2 2.32%
CCc1ccccc1NS(=O)(=O)c1ccc2nc(-c3ccccc3)[nH]c2c1 -2.95%
CC(C)OCCCNC(=O)C(=O)Nc1c2c(nn1-c1ccccc1)CS(=O)(=O)C2 -13.9%
Cc1ccc(C)c(NC(=O)CN2C(=O)C3(SCC(=O)N3c3ccc(C)c(C)c3)c3ccccc32)c1 (stereo unspecified) -23.5%
O=C(Cn1nc(-c2ccccc2)c2cnc3ccccc3c21)Nc1ccccc1 -10.9%
Cc1ccc(Cn2nnc3sc4c(c3c2=O)CCC(C)C4)cc1 (stereo unspecified) -10.7%
CCC(=O)N1CCc2cc(CNS(=O)(=O)c3c(C)cc(C)cc3C)ccc21 -13.5%
CC1=C(C(=O)Nc2cccnc2)C(c2ccccc2)n2nc(SCc3ccccc3)nc2N1 (stereo unspecified) -4%
COC(=O)c1ccccc1NC(=O)c1cc(-c2ccc(Cl)cc2)on1 5.62%
Cc1ccc2nc(-c3ccc(Cl)c(NC(=O)c4ccc5c(c4)OCCO5)c3)oc2c1 -21.1%
Cc1nnc(NCc2ccc(Cl)cc2)c2c1nnn2Cc1ccc(F)cc1 -30.7%
CC1CCc2nc3ncn(Cc4ccc(Cl)cc4)c(=O)c3cc2C1 (stereo unspecified) -3.14%
CCCCOc1ccc(C(=O)Nc2ccc(S(=O)(=O)Nc3nc(C)cc(C)n3)cc2)cc1 -7.67%
Cc1nc2ccccc2n1CCc1nc2c3ccccc3nc(SCC(=O)Nc3cccc(C(F)(F)F)c3)n2n1 -7.98%
CCc1ccc2ncc(S(=O)(=O)c3ccc(Cl)cc3)c(N3CCN(CC)CC3)c2c1 -21.6%
Cn1c(=O)n(-c2ccc3c(c2)OCO3)c2nc(-c3ccc(Cl)cc3)nc(C(N)=O)c21 -6.07%
O=C(CCC1N=C2c3ccccc3N=C(SCc3ccccc3Cl)N2C1=O)NCCc1ccccc1 (stereo unspecified) -19%
Cc1ccccc1NC(=O)CSc1nc(-c2ccc(F)cc2)nc2c1Cc1ccccc1O2 -1.91%
COc1ccc2c(Sc3ccccc3)c(C(=O)NCC(C)c3ccccc3)[nH]c2c1 (stereo unspecified) -24.5%
Cc1cc(C)nc(NS(=O)(=O)c2ccc(NC(=O)c3ccccc3O)cc2)n1 6.75%
COc1ccc(Br)cc1Cn1nnc(C(=O)Nc2ccc(C)cc2C)c1N -13.8%
CCCCOc1ccc(C(=O)N2CC(=O)Nc3ccc(Br)cc3C2c2ccc(F)cc2)cc1 (stereo unspecified) -8.48%
Cc1cc(C)cc(-n2c(SCC(=O)N3CCCC3)nc3c([nH]c4ccccc43)c2=O)c1 -21.4%
CCS(=O)(=O)N1CC(=O)N(c2ccc(Cl)cc2C)C(C)(C(=O)NC2CCCCCC2)C1 (stereo unspecified) 2.96%
CCc1nnc(SCc2cccc(F)c2)c2cc3sc(C)cc3n12 -15.9%
CCOc1ccc(N2CC(c3nc4ccccc4n3CCCOc3ccccc3OC)CC2=O)cc1 (stereo unspecified) -14.4%
COc1ccc(NC(=O)C2CCN(S(=O)(=O)c3ccc4[nH]c(=O)ccc4c3)CC2)cc1Cl -20%
O=C(CCCl)NCc1ccccc1 -11.9%
COc1cc(OC)c(NC(=O)C(c2ccccc2)N2Cc3ccccc3C2=O)cc1Cl (stereo unspecified) -6.32%
COc1ccc(N2CC(NC(=O)/C=C\c3ccc4c(c3)OCO4)CC2=O)cc1 (stereo unspecified) -0.88%
CC(C)CN(CCCNC(=O)c1cc(-c2ccc(Br)s2)nc2ccccc12)CC(C)C -4.17%
CCOC(=O)c1scc(-c2ccccc2)c1S(=O)(=O)Nc1ccc(N(C)C)cc1 -44.7%
COc1ccc(CCNC(=O)C2(c3cccs3)CCOCC2)cc1 1.58%
O=C(Nc1nonc1-c1ccc(Cl)cc1)c1ccccc1F 4.1%
Cc1cccc(CCNC(=O)C2CCC(CNS(=O)(=O)c3ccccc3)CC2)c1 (stereo unspecified) -8.71%
CCCC(CCC)C(=O)Nc1cccc(-c2nc3cccnc3s2)c1C -27.2%
COc1cccc(-c2nc(CS(=O)(=O)CC(=O)NCCc3ccc(OC)cc3OC)c(C)o2)c1 -19.9%
Cc1nn2c(C)c(C(=O)N3CCN(c4ccccc4F)CC3)cnc2c1-c1ccc(F)cc1 -2.88%
Cc1nnc(SCc2cc(=O)n3cccc(C)c3n2)s1 19.4%
CCOc1cc(C(=O)Nc2ccc3nc(Nc4cccc(Cl)c4)cc(C)c3c2)cc(OCC)c1OCC -13.5%
COCCCNC(=O)c1ccc(Cn2c(=O)c3ccccc3n(CC(=O)Nc3c(C)cccc3C)c2=O)cc1 -1.71%
CCCCCCNc1nc2c(c(=O)n(C)c(=O)n2C)n1Cc1cccc(C)c1 -37.5%
N#Cc1ccccc1Cn1c(=O)n(CCCC(=O)NCc2ccccc2Cl)c(=O)c2ccccc21 -2.93%
O=C(Nc1ccc(F)c(Cl)c1)C1CCN(C(=O)c2ccc(F)cc2)CC1 7.38%
CNS(=O)(=O)Cc1ccc2[nH]cc(CCN(C)C)c2c1 -6.16%
COc1ccc(Cl)cc1NC(=O)CSC1=Nc2ccccc2C2=NC(CCC(=O)NCc3ccc(F)cc3)C(=O)N12 (stereo unspecified) 0.545%
CCOC(=O)c1ccc(NC(=O)c2cnn(-c3ccc(C)cc3C)c2C2CCN(C(=O)OC(C)(C)C)CC2)cc1 -2.44%
CCOC(=O)c1c(NC(=O)CCCOc2ccc(Cl)cc2)sc2c1CCC2 -25.7%
COc1ccc(CNC(=O)c2ccc(NC(=O)N3CCSc4ncccc43)cc2)cc1OC -11.9%
COc1ccc(-c2oc3ncn4nc(COc5ccc(C)cc5)nc4c3c2-c2ccc(OC)cc2)cc1 -19.2%
COc1cccc(CN(C(=O)c2ccc(C(C)(C)C)cc2)C2CCS(=O)(=O)C2)c1 (stereo unspecified) -21.3%
O=C(NCCc1csc2nc(-c3ccccc3F)nn12)c1ccccc1C(F)(F)F -11.6%
CCOC(=O)Cn1c(=O)oc2cc(S(=O)(=O)N3CCN(c4ccccc4OC)CC3)ccc21 -15.6%
CCCOc1ccc(C(=O)Nc2ccc3nn(-c4ccc(OC)c(Cl)c4)nc3c2)cc1 -11.2%
CCOc1ccc(-c2nnc(SCC(=O)Nc3cc(F)ccc3F)o2)cc1 -15.2%
COCCCNC(=O)c1ccc(Cn2c(=O)c3ccccc3n(Cc3ccccc3C)c2=O)cc1 -14.5%
COc1cccc2c1Oc1nc(-c3ccccc3)nc(SCC(=O)Nc3ccccc3)c1C2 -3.96%
O=C(C1CCCN(S(=O)(=O)c2cccc3nonc23)C1)N1CCN(c2ccccc2Cl)CC1 (stereo unspecified) -3.15%
Nc1nonc1-c1nc2ccccc2n1Cc1c(Cl)cccc1Cl -4.89%
COc1ccc(N(CC(=O)NCCc2ccccc2)S(=O)(=O)c2ccc(OC)c(OC)c2)cc1 -7.71%
COc1ccc(CCNC(=O)c2ccc3nc(Cc4ccccc4)oc3c2)cc1OC -22.2%

— PubChem BioAssay AID1159614 (National Center for Advancing Translational Sciences (NCATS), 2016)
